What all share (assay): protein-binding microarray (PBM)
Common to all, as to details: PBM: ~300 nM protein, 6 mM HEPES pH 7.8, 80 mM KCl, 0.5 mM EDTA, 0.5 mM EGTA, 6% glycerol, 35 ng/ul poly-dIdC, 1% milk, 1 h, room temperature; Ap Aiptasia and Nv Nematostella (sea anemones) / Co Capsaspora / Aq Amphimedon (sponge) / Dm Drosophila / Hu human; RHD is the Rel homology domain; high values mean tight binding; most listed sequences are background and not binding sites; double strand, one strand shown

In assay [1] the target is T1, GST-Ap-NF-kB RHD (UniProt A0A913YAJ5).
T1 sequence: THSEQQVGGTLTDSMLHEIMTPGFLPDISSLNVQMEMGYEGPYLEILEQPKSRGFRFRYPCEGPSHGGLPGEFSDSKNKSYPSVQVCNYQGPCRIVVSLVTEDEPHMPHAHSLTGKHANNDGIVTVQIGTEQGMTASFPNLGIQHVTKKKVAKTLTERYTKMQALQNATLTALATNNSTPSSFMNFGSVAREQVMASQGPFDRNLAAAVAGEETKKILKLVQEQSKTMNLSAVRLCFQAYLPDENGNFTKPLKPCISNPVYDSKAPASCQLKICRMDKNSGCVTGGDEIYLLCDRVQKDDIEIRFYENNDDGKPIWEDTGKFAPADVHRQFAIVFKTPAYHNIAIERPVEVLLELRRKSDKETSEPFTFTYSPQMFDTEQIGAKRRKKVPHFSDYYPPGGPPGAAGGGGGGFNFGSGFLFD

For assay [2], the target named is T2, GST-Nv-NF-kB (Cys allele) (UniProt E5G601).
T2 sequence: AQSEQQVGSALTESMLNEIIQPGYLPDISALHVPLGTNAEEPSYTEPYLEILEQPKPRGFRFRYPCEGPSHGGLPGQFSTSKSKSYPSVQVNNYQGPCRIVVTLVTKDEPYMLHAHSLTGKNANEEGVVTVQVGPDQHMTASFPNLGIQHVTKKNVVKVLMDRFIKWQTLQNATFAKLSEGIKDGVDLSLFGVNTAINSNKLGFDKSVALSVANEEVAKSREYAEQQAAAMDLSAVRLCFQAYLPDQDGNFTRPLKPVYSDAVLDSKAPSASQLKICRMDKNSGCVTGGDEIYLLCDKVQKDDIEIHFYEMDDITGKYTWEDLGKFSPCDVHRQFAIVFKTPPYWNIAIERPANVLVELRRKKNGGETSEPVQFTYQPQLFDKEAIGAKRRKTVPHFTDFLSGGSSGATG

Assay [3] addresses T3, GST-Co-NF-kB (UniProt F1ARL5).
T3 sequence: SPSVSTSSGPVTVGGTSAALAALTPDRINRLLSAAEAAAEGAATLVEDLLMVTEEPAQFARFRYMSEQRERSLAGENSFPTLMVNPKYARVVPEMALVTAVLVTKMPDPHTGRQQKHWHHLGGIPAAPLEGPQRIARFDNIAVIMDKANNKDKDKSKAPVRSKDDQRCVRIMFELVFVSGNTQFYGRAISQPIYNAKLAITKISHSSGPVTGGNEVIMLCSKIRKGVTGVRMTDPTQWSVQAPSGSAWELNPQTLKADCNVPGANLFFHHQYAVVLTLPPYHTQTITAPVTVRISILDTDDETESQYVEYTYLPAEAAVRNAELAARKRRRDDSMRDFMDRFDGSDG

The target in assay [4] is T4, GST-Dm-Relish (UniProt Q94527).
T4 sequence: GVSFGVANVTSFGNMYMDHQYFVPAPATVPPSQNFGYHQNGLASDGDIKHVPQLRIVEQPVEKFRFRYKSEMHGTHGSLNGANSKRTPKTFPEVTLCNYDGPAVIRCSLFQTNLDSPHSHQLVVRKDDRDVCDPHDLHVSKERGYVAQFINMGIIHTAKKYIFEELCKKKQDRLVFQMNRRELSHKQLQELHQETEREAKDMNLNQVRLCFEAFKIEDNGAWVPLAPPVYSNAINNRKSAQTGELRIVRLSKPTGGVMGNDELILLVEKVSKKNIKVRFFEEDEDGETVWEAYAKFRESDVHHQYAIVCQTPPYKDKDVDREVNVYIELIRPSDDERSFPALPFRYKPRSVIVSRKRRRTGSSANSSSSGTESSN

Assay [5] deals with T5, GST-Aq-NF-kB (UniProt A9Y5G7).
T5 sequence: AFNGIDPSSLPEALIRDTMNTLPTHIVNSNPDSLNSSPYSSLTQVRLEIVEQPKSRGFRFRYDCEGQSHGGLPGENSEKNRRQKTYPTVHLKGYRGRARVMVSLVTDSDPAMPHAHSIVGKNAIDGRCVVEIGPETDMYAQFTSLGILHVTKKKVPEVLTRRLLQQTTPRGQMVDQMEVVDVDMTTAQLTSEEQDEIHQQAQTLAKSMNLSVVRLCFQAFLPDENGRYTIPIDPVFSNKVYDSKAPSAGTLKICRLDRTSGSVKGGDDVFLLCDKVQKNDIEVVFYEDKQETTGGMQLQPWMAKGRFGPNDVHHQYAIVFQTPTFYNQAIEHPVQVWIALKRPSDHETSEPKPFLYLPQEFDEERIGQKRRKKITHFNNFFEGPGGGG

Only a part is listed here, and it is no random draw. The list includes weakly bound sequences.

For the sequence “CCGATTAACATCACCAGGAAAGTTGATGTTAATCGGGTCTTGATTCGCTTGACGCTGCTG”, the binding signal in assay [1] is -0.298 z-score; in assay [2], 0.64 z-score; in assay [3] it was 0.462 z-score; in assay [4] it was 0.393 z-score; in assay [5] it was 0.234 z-score.
“CCGATTAACATCATGCACTAAAGTGATGTTAATCGGGTCTTGATTCGCTTGACGCTGCTG”: the binding signal in assay [1] is -0.245 z-score; in assay [2], -0.955 z-score; in assay [3] it was 0.366 z-score; in assay [4] it was -0.102 z-score; in assay [5] it was -0.553 z-score.
On to “CCGATTAACATCAACATTCATAATGATGTTAATCGGGTCTTGATTCGCTTGACGCTGCTG”, for which the binding signal was 0.0313 z-score in assay [1]; -1.01 z-score in assay [2]; -0.987 z-score in assay [3]; -0.336 z-score in assay [4]; -0.482 z-score in assay [5].
In the same order, the values of “CCGATTAACATCACCGCTCTAAGTGATGTTAATCGGGTCTTGATTCGCTTGACGCTGCTG” are 0.422 z-score, 0.39 z-score, 0.225 z-score, 0.77 z-score and 0.112 z-score.
As for “CCGATTAACATCACCCAGTTGCTTGATGTTAATCGGGTCTTGATTCGCTTGACGCTGCTG”, the binding signal in assay [1] was 0.25 z-score; in assay [2], 0.0326 z-score; in assay [3], 0.681 z-score; in assay [4], 0.103 z-score; in assay [5], 0.118 z-score.
As to “CCGATTAACATCATTCCACCAGGTGATGTTAATCGGGTCTTGATTCGCTTGACGCTGCTG”, the binding signal in assay [1] is 0.604 z-score; in assay [2], -0.557 z-score; in assay [3] it was 0.492 z-score; in assay [4], 0.778 z-score; in assay [5], 0.389 z-score.
With “CCGATTAACATCACCGAGTTAGTTGATGTTAATCGGGTCTTGATTCGCTTGACGCTGCTG”, the binding signal in assay [1] is 0.331 z-score; in assay [2] it was 1.15 z-score; in assay [3] it was 0.423 z-score; in assay [4], 0.524 z-score; in assay [5], -0.0985 z-score.
Take “CCGATTAACATCAGAAATCCTATTGATGTTAATCGGGTCTTGATTCGCTTGACGCTGCTG”: the binding signal in assay [1] was -0.604 z-score; in assay [2], 0.235 z-score; in assay [3] it was -0.247 z-score; in assay [4] it was 0.421 z-score; in assay [5] it was -0.0785 z-score.
As to “CCGATTAACATCAATCCTACAGGTGATGTTAATCGGGTCTTGATTCGCTTGACGCTGCTG”, the binding signal is -0.249 z-score in assay [1]; -0.269 z-score in assay [2]; -0.247 z-score in assay [3]; 0.288 z-score in assay [4]; -0.126 z-score in assay [5].
For the sequence “CCGATTAACATCAGTATGCCAACTGATGTTAATCGGGTCTTGATTCGCTTGACGCTGCTG”, the binding signal in assay [1] was -0.881 z-score; in assay [2], -0.129 z-score; in assay [3], -0.00177 z-score; in assay [4] it was -0.325 z-score; in assay [5], -0.52 z-score.
Taken in the same sequence, the figures for “CCGATTAACATCAAGTGAAAGCATGATGTTAATCGGGTCTTGATTCGCTTGACGCTGCTG” were -0.268 z-score, 0.026 z-score, -0.473 z-score, -0.407 z-score and -0.217 z-score.
On to “CCGATTAACATCATCGTGACCCATGATGTTAATCGGGTCTTGATTCGCTTGACGCTGCTG”, for which the binding signal in assay [1] was -0.156 z-score; in assay [2], 0.164 z-score; in assay [3] it was -0.0798 z-score; in assay [4] it was -0.388 z-score; in assay [5], -0.2 z-score.

These data come from PMC5700166.
